Measurements as given in patent US6245563A, “Enhanced activation of natural killer cells using an NK cell activator and hydrogen peroxide scavenger or inhibitor” (priority 2000, dated 2001).
Read-outs that look alike come from different tables or passages of the source.

Legend:
[1] = tested on: respiratory burst of monocytes; assay: Respiratory burst activity of monocytes (luminol-enhanced chemiluminescence); type: cell-based, human; conditions: for effect on the respiratory burst of monocytes: compared with histamine; for inhibition of generation of reactive oxygen products by monocytes: acting via monocyte H2 receptors, conclusion
Description: (§1) Chemiluminescence (CL) of cells was recorded at 37° C. in a 6-channel Biolumat LB 9505 (Berthold Co., Wildbad, Germany) using 4 ml polypropylene tubes as described by Lock et al. Anal. Biochem. 173:450 (1988). The reaction mixture contained 0.8 ml elutriated monocytes (5×10^6 cells/ml). The tubes were allowed to equilibrate for 5 minutes at 37° C. before formylmethionyl-leucyl-phenylalanine (fMLP; Sigma; 10^-7 M final concentration) and luminol (Sigma; 10^-6 M) were added and light emission recorded. Formylmethionyl-leucyl-phenylalanine was dissolved to 10^-2 M in dimethyl sulfoxide and subsequently diluted in Krebs-Ringer phosphate buffer supplemented with glucose (10 mM), Ca^2+ (1 mM), and Mg^2+ (1.5 mM). Luminol was dissolved in 0.1 mM NaOH to 5×10^-2 M and further diluted in Krebs-Ringer phosphate buffer.
In a second set of experiments, effects of histamine and H2 R-interactive compounds on the respiratory burst activity, as measured by the luminol-enhanced CL response of enriched, elutriated monocytes, were studied. Monocytes were treated with culture medium (control), histamine (10^-5 M), sodium azide (10^-5 M), or histamine and sodium azide as described below. Emission of CL was recorded after addition of fMLP at time=0.

NK activity = conditions: spleen, liver, lungs, peritoneum; cited from earlier work
human neoplasia = conditions: cited from earlier work
RBC [2] = assay: cells; conditions: Erythrocyte, read-out: lysis of RBC
K562 target cells [3] = tested on: K562 target cells
Description: After 1 hour incubation, nonadherent lymphocytes were recovered, washed twice, and assayed for cytotoxicity as described above. We wished to determine whether the NK cell inhibitory signal was reversible by removal of monocytes and removal of monocyte-derived products.

K562 target cells [4] = assay: cells; conditions: Homo sapiens, K562, read-out: ED50 for suppression of NK cell cytotoxicity
K562 target cells [5] = tested on: K562 target cells; remark: listed apart in the source
K562 target cells [6] = tested on: K562 target cells; remark: listed apart in the source
NK cells [7] = conditions: cited from earlier work; for effect on suppression of NK cells: presence of histamine and serotonin
RBC [8] = conditions: histamine 10^-4 M, H2 O2 5×10^-5 M
[9] = histamine 10^-4 M, MPO 10 μg/ml, cell free
Description: as §1

NK cells [10] = conditions: histamine 10^-4 M or catalase 20 U/ml; IL-2 50 U/ml, 48 hours
Description: During the last 8 hours of incubation, cells were pulsed with ^3 H-methyl-thymidine (specific activity 2 Ci/mole; New England Nuclear Corp.; 1 μCi/2×10^5 cells). Following incubation, the cells were collected on glass fiber filters with an automatic cell harvester and cell-incorporated ^3 H-methyl-thymidine was estimated by liquid scintillography.

K562 target cells [11] = assay: IL-2-induced NK cell cytotoxicity with or without monocytes (microcytotoxicity); conditions: histamine 10^-4 M or catalase 20 U/ml; IL-2 50 U/ml, 16 hours
Description: These mixtures were then incubated with K562 target cells in sextuplicate in microplates in a total volume of 200 μl and assayed for microcytotoxicity.

K562 target cells [12] = conditions: histamine 10^-4 M or catalase 20 U/ml, added at time points after start of assay
[13] = tested on: histamine H2 -type receptors; assay: Antagonism of the effect of histamine on the respiratory burst of monocytes; type: cell-based, human; conditions: histamine 10^-5 M, fMLP-stimulated monocytes
Description: Monocytes were treated with histamine plus ranitidine (open circles) or AH20239AA (filled circles).
In these experiments, monocytes were treated with histamine (10^-5 M) together with ranitidine or AH20239AA at final concentrations indicated in FIG. 7. All cells were treated with fMLP at time=0.

[14] = tested on: YAC-1 mouse lymphoma cells; conditions: 100 U/kg, intravenous, 2 hours after tumor inoculation

## CN(C)CCCSC(=N)N [Dimaprit]
[1]
  effect on the respiratory burst of monocytes: mimicked the effect of histamine on the respiratory burst of monocytes
[1]; data not shown
  incubation time until maximal effect on respiratory burst (not maximal until after): 10 to 15 min

## O=C(O)Cc1cccc2c(=O)cc(-c3ccccc3)oc12 [FAA, Flavone-8-acetic acid]
NK activity
  NK activity in vivo: potently augment NK activity in the spleen, liver, lungs, and peritoneum
Human neoplasia; human, in vivo
  reasons for disappointing clinical trials: non-linear pharmokinetics, low dose potency and problems of drug precipitation

## OO [H2 O2, hydrogen peroxide]
RBC [2]
  hemolysis at 50 µM: ~50%
K562 target cells [3]
  inhibition of NK cell cytotoxicity by pretreatment: sufficient to effectively inhibit NK cell cytotoxicity
K562 target cells [3]; pretreatment 20 minutes, 1.5 × 10^-6 M, MO-
  cell lysis %: 26 ± 2%
K562 target cells [3]; pretreatment 20 minutes, 3 × 10^-6 M, MO-
  cell lysis %: 12 ± 1%
K562 target cells [3]; pretreatment 20 minutes, 6 × 10^-6 M, MO-
  cell lysis %: 2 ± 1%
K562 target cells [4]
  IC50: ~2000 nM
K562 target cells [5]; 0-10 μM, enriched NK cells
  suppression of NK cell cytotoxicity: effectively suppressed NK cell cytotoxicity

## CNC(=N)NCCC[C@H](N)C(=O)O [L-NMMA]
K562 target cells [6]; 2 × 10^-4 M, MO+, medium
  cell lysis %: 11 ± 1%
K562 target cells [6]; 2 × 10^-4 M, MO+, with histamine 10^-4 M
  cell lysis %: 45 ± 3%
K562 target cells [6]; 2 × 10^-4 M, MO-, medium
  cell lysis %: 61 ± 3%
K562 target cells [6]; 2 × 10^-4 M, MO-, with histamine 10^-4 M
  cell lysis %: 54 ± 2%

## O=C(O)Cc1cccc2c(=O)c3ccccc3oc12 [XAA, Xanthenone-4-acetic acid]
NK cells [7]
  effect on NK cell activity/cytotoxicity: induce NK activity in vitro

## CC(=O)N(O)CCCCCNC(=O)CCC(=O)N(O)CCCCCNC(=O)CCC(=O)N(O)CCCCCN [deferox, deferoxamine]
K562 target cells [6]; 10^-4 M, MO+, medium
  cell lysis %: 12 ± 3%
K562 target cells [6]; 10^-4 M, MO+, with histamine 10^-4 M
  cell lysis %: 60 ± 2%
K562 target cells [6]; 10^-4 M, MO-, medium
  cell lysis %: 81 ± 2%
K562 target cells [6]; 10^-4 M, MO-, with histamine 10^-4 M
  cell lysis %: 74 ± 5%

## NCCc1c[nH]cn1 [histamine]
K562 target cells [3]; pretreatment 1 hour, 10^-5 M, MO+
  cell lysis %: 51 ± 2%
K562 target cells [3]; pretreatment 1 hour, 10^-5 M, MO-
  cell lysis %: 59 ± 3%
K562 target cells [3]; pretreatment 1 hour, versus medium control
  cytotoxicity of lymphocytes recovered from monocyte/NK cell mixtures: more cytotoxic against K562 target cells than control mixtures pretreated with medium only
RBC [8]
  effect on RBC killing induced by H2 O2: did not alter the level of RBC killing induced by H2 O2
NK cells [7]
  effect on suppression of NK cells: halted
[9]
  effect on CL recorded with H2 O2 and/or MPO or H2 O2 and HRP: unchanged
K562 target cells [6]; presence of monocytes and catalase
  effect in the presence of catalase: ineffective in the presence of catalase
[1]
  inhibition of generation of reactive oxygen products by monocytes: inhibit the generation of reactive oxygen products by monocytes
[1]; data not shown
  onset of block of respiratory burst activity: blocked respiratory burst activity within seconds
[1]; histamine 10^-5 M, unstimulated and fMLP-stimulated monocytes
  inhibition of respiratory burst activity: effectively inhibited both the burst activity of unstimulated monocytes and the induction of burst by fMLP
[1]; sodium azide-treated monocytes, exogenous HRP
  inhibition of fMLP induced CL response with sodium azide and excess HRP: inhibited the fMLP induced CL response
NK cells [10]
  reversal of monocyte-induced inhibition of IL-2-induced NK cell proliferation: effectively reverse this monocyte-induced inhibition
K562 target cells [5]; catalase 20 U/ml, histamine, data not shown
  reversal of H2 O2-induced inhibition of NK cells: but not histamine
K562 target cells [11]
  reversal of monocyte-induced inhibition of IL-2-induced NK cell cytotoxicity: effectively reverse this monocyte-induced inhibition
K562 target cells [12]
  time window of effect on the NK cell suppressive signal: effective in inhibiting the NK cell suppressive signal only when these compounds were added within the first hour of incubation

## OC[C@@H](O)[C@@H](O)[C@H](O)[C@H](O)CO [mannitol]
K562 target cells [6]; 3 × 10^-4 M, MO+, medium
  cell lysis %: 20 ± 1%
K562 target cells [6]; 3 × 10^-4 M, MO+, with histamine 10^-4 M
  cell lysis %: 67 ± 2%
K562 target cells [6]; 3 × 10^-4 M, MO-, medium
  cell lysis %: 73 ± 3%
K562 target cells [6]; 3 × 10^-4 M, MO-, with histamine 10^-4 M
  cell lysis %: 68 ± 3%

## CN(C)CCSC(=N)N [nor-dimaprit]
[1]
  effect on the respiratory burst of monocytes: ineffective

## CNC(=C[N+](=O)[O-])NCCSCc1ccc(CN(C)C)o1 [ranitidine]
[13]
  block of the effects of histamine on the respiratory burst: entirely blocked

## NCCc1c[nH]c2ccc(O)cc12 [serotonin]
NK cells [7]
  effect on suppression of NK cells: halted
[1]
  inhibition of generation of reactive oxygen products by monocytes: inhibit the generation of reactive oxygen products by monocytes

## NCCS(=O)(=O)O [taurin]
K562 target cells [6]; 10^-3 M, MO+, medium
  cell lysis %: 6 ± 1%
K562 target cells [6]; 10^-3 M, MO+, with histamine 10^-4 M
  cell lysis %: 64 ± 3%
K562 target cells [6]; 10^-3 M, MO-, medium
  cell lysis %: 70 ± 4%
K562 target cells [6]; 10^-3 M, MO-, with histamine 10^-4 M
  cell lysis %: 75 ± 4%

## IFN-α
NK cells [7]
  effect on NK cell activity/cytotoxicity: enhance NK cell cytotoxicity
Human neoplasia; high doses
  clinical anti-tumor outcome: the overall results of therapy with high doses of IFN-α have been disappointing
Human neoplasia; human, in vivo
  side effects / toxic reactions in patients: acute toxic reactions including fever, chills, myalgias, anorexia, fatigue, headache, nausea and vomiting

## IL-12: also known as natural killer cell stimulatory factor (NKSF), is a recently discovered cytokine
NK cells [7]
  effect on NK cell activity/cytotoxicity: increase NK cell and cytotoxic T lymphocyte activity, T cell proliferation, and the production of interferon-γ
NK cells [7]; tumor-derived target cell lines
  cytotoxic activity of peripheral blood lymphocytes: enhance the spontaneous cytotoxic activity of peripheral blood lymphocytes against a variety of tumor-derived target cell lines

## catalase
[14]
  NK cell-mediated killing of YAC-1 lymphoma cells in vivo (retained radioactivity in lungs): augmented the NK cell-mediated killing of YAC-1 lymphoma cells in vivo
NK cells [10]
  reversal of monocyte-induced inhibition of IL-2-induced NK cell proliferation: effectively reverse this monocyte-induced inhibition

B1: IFN-γ: interferon-γ (protein, UniProt P01579 24-161, looked up)
Interferon gamma: QDPYVKEAENLKKYFNAGHSDVADNGTLFLGILKNWKEESDRKIMQSQIVSFYFKLFKNFKDDQSIQKSVETIKEDMNVKFFNSNKKKRDDFEKLTNYSVTDLNVQRKAIHELIQVMAELSPAAKTGKRKRSQMLFRG
NK cells [7]
  effect on NK cell activity/cytotoxicity: enhance NK cell cytotoxicity
